Laboratory results from PubChem BioAssay AID504845 (National Center for Advancing Translational Sciences (NCATS), 2011).
Hit rate of the full screen: of about 390,000 compounds, about 150 (0.038%) were called active. Inconclusive means that the source gave no clear call. Such entries were picked first, then a sample of the others. Calls come from the whole dose curve; as a rule, active = well fitted inhibition curve with a large enough effect; inconclusive = small, poorly fitted or top-dose-only effect; inactive = no such curve, though single readings can be large or run the other way. A potency beside an inconclusive call is a rough fit, not a confirmed value.

Target: Regulator of G-protein signaling 4 (Homo sapiens) (UniProt P49798)
Sequence of UniProt P49798 (P49798 whole entry, looked up): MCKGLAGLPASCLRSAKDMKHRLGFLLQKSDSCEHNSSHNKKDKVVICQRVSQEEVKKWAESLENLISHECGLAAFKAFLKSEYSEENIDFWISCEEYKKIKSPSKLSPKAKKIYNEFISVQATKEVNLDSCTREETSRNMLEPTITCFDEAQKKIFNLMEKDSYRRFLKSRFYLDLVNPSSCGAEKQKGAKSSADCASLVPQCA
Experiment: Inhibitors of Regulator of G Protein Signaling (RGS) 4: qHTS; note: nearly all actives have a fitted effect of over 75% in size
Conditions: Transcreener GDP fluorescence polarization, RGS4-accelerated GTP hydrolysis; series mostly up to 114 µM
Summary of the method: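 MLSMR compounds (23 nl, pin-transferred) preincubated 10 min at room temperature with a 500nM (2x) first reagent, then RGS4 at 900nM (2x) plus Transcreener GDP mix added; fluorescence polarization (620/688 nm) read before and after 90 min at 30 °C.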
Potency is the fitted concentration of half-maximal effect; tags give direction and shape of the fitted curve.

Row | Structure (SMILES) | Potency
1 | Cc1c(NCc2cc(Cl)cc(Cl)c2O)c(=O)n(-c2ccccc2)n1C | inactive
2 | Cc1ccc(C(=O)NCCc2nnc3ccc(SCC(=O)N4CCCCC4)nn23)cc1 | inconclusive: 10 µM [inhibitor, full curve, poor fit]
3 | Cc1ccc(/C=N/NC(=O)CCCOc2ccc(Cl)cc2Cl)cc1[N+](=O)[O-] | inconclusive: 17.8 µM [inhibitor, partial curve, poor fit]
4 | Nc1ccc(C(=O)Nc2cccc(NC(=O)c3ccc(N)cc3)c2)cc1 | inconclusive: 79.4 µM [inhibitor, partial curve, poor fit]
5 | O=C(c1cc(Cl)nc2ccccc12)N1CCN(S(=O)(=O)c2cccc(C(F)(F)F)c2)CC1 | inactive
6 | CC(=O)c1ccc(OCC(=O)NC2CCCN(Cc3ccccc3F)C2)cc1 (configuration not stated) | inactive
7 | O=C(O)COc1ccc(-c2nccc(-c3ccccn3)n2)cc1 | inconclusive: 56.2 µM [inhibitor, partial curve, poor fit]
8 | COC(=O)C1=C(C)N(CCc2c[nH]c3ccc(OC)cc23)C(=O)C1 | inconclusive: 100 µM [inhibitor, partial curve, poor fit]
9 | COc1cccc(/C=C2/C(=O)NN(c3ccc(C)c(C)c3)C2=O)c1 | inconclusive: 89.1 µM [inhibitor, partial curve, poor fit]
10 | COc1cc(/C=C(\C#N)c2nc3ccc(C)cc3[nH]2)cc([N+](=O)[O-])c1O | inactive
11 | Clc1cccc(Cl)c1Cn1nnc(-c2cccs2)n1 | inconclusive: 89.1 µM [inhibitor, single point]
12 | C=CC#CC1(O)CC(C)N(C)CC1C (configuration not stated) | inactive
13 | CCOc1cc(Br)cc(/C=C2\SC(=Nc3ccccc3)NC2=O)c1O | inconclusive: 28.2 µM [inhibitor, full curve, poor fit]
14 | N#Cc1c(=O)c2nc(NCc3ccccc3)ncc2n2ccccc12 | inconclusive: 100 µM [inhibitor, single point]
15 | Cc1cc(-c2csc(NC(=O)c3ccc(=O)n(C)n3)n2)c(C)n1CC1CCCO1 (configuration not stated) | inconclusive: 79.4 µM [inhibitor, partial curve, poor fit]
16 | COc1cc2c(cc1NS(=O)(=O)c1cccc(C#N)c1)n(C)c(=O)n2C | inconclusive: 17.8 µM [inhibitor, full curve, poor fit]
17 | Cc1ccc2nc(N/N=C/c3ccco3)cc(C)c2c1 | inactive
18 | O=C(O)C(c1ccccc1)N1C(=O)/C(=C\c2ccc(-c3ccc(Br)cc3)o2)SC1=S (configuration not stated) | inconclusive: 17.8 µM [inhibitor, full curve, poor fit]
19 | Cc1ccnc2nc(C(=O)NC3CCCc4ccccc43)nn12 (configuration not stated) | inactive
20 | c1ccc(-c2c[nH]c(-c3ccccc3)c2)cc1 | inconclusive: 100 µM [inhibitor, single point]
21 | S=C(NC1CCCCC1)N(CCc1nc2ccccc2[nH]1)C1CCCC1 | inactive

Row | Structure (SMILES) | Potency
22 | CC(C)c1nc2ccccc2c2nnc(SCC(=O)NCc3ccco3)n12 | inactive
23 | COc1cc(/C=C(\C#N)C(=O)Nc2cccc(C(=O)O)c2)ccc1OCc1ccc(C)cc1 | inconclusive: 79.4 µM [inhibitor, partial curve, poor fit]
24 | CCN(CC)c1ccc(NC(=O)c2ccccc2Br)cc1S(=O)(=O)Nc1ccccc1OC | inconclusive: 100 µM [inhibitor, partial curve, poor fit]
25 | C#CCOCCOCCOCCNc1nc(N2CCN(C(=O)CCCCCCCCCCNC(=O)[C@H](CO)n3cc(CCCSC)nn3)CC2)nc(N2CCN(C(=O)CCCCCCCCCCNC(=O)[C@H](CCCN=C(N)N)n3cc(C[C@@H](C)CC)nn3)CC2)n1 | inconclusive: 25.1 µM [inhibitor, full curve, poor fit]
26 | CC(=O)Nc1ccc(C(=O)N/N=C/c2ccccc2OCc2ccccc2)cc1 | inconclusive: 89.1 µM [inhibitor, partial curve, poor fit]
27 | COc1ccc(OCC(=O)N/N=C2\CCCCc3ccccc32)cc1 | inconclusive: 17.8 µM [inhibitor, full curve, poor fit]
28 | COCCNC(=O)C(=O)NCC1OCCN1S(=O)(=O)c1cc(F)ccc1F (configuration not stated) | inactive
29 | CC(C)c1cc(C(=O)Nc2cc(Cl)ccc2O)no1 | inactive
30 | Nc1cccc(-n2nnnc2CN2CCOCC2)c1 | inconclusive: 44.7 µM [inhibitor, partial curve, poor fit]
31 | Cc1ccc(-c2nnn(CC(=O)N(Cc3ccccc3F)C(C(=O)NC3CCCC3)c3ccncc3)n2)o1 (configuration not stated) | inconclusive: 79.4 µM [inhibitor, partial curve, poor fit]
32 | COc1cc(/C=C2\SC(c3ccc(C)cc3)=NC2=O)ccc1O | inconclusive: 50.1 µM [inhibitor, partial curve, poor fit]
33 | CCn1c(Nc2ccccc2Cl)nc2ccccc21 | inconclusive: 39.8 µM [inhibitor, partial curve, poor fit]
34 | O=C(N/N=C/c1ccc(O)cc1O)C(=O)N/N=C/c1ccc(O)cc1O | inactive
35 | COc1ccc(/C=C/C(=O)Nc2nc(C)cc(C)n2)cc1OC | inconclusive: 79.4 µM [inhibitor, partial curve, poor fit]
36 | CCOC(=O)c1cc(-c2ccccc2)sc1NC(=O)c1ccc(OC)c(OC)c1 | inconclusive: 28.2 µM [inhibitor, full curve, poor fit]
37 | COc1ccc2c(c1)-c1nc(NC(=O)c3cc(Cl)ccc3OC)sc1CC2 | inactive
38 | COc1ccc(OC)c(NC(=O)c2c(NCc3ccc(C)o3)sc3c2CCC(C)C3)c1 (configuration not stated) | inconclusive: 79.4 µM [inhibitor, partial curve, poor fit]
39 | COc1ccc(NC(=O)CCC(=O)Nc2ccc3nc(N4CCOCC4)cc(C)c3c2)c(OC)c1 | inactive
40 | CC(=O)c1cccc(S(=O)(=O)NCCc2csc3nc(-c4ccc(F)cc4)nn23)c1 | inactive
41 | Cc1ccc(-c2nn(-c3ccccc3)cc2/C=N/O)cc1 | inactive
42 | COc1cc(/C=N/NC(=O)c2ccncc2)ccc1OC(=O)c1cc(OC)c(OC)c(OC)c1 | inconclusive: 89.1 µM [inhibitor, single point]

Row | Structure (SMILES) | Potency
43 | COc1ccccc1Nc1ccc2c(O)cc(S(=O)(=O)O)cc2c1 | inconclusive: 50.1 µM [inhibitor, partial curve, poor fit]
44 | COc1ccc(NC(=O)c2ccc3c(c2)C(=O)N(Cc2ccncc2)C3=O)cc1S(N)(=O)=O | inconclusive: 28.2 µM [inhibitor, full curve, poor fit]
45 | COc1ccc(-c2noc(CSc3nc(-c4ccccc4)cc(=O)[nH]3)n2)cc1OC | inconclusive: 50.1 µM [inhibitor, partial curve, poor fit]
46 | O=C(O)c1cccc(NC(=S)N/N=C/c2ccccc2OCc2ccc(Br)cc2)c1 | inconclusive: 44.7 µM [inhibitor, partial curve, poor fit]
47 | CO/C=C\C=C/c1nnn(-c2ccc(Cl)cc2)n1 | inconclusive: 35.5 µM [inhibitor, full curve, poor fit]
48 | CN1CCN(CC(=O)N2c3ccccc3C(=O)Nc3cccnc32)CC1 | inconclusive: 1.34 µM [inhibitor, partial curve, poor fit]
49 | O=C(c1c[nH]c(C(=O)C(Cl)(Cl)Cl)c1)c1ccc(F)cc1Cl | inconclusive: 89.1 µM [inhibitor, single point]
50 | CN(C)c1ccc(C=c2c3ccccc3n3c2c2c([n+]3C)CCCC2)cc1 | inconclusive: 50.1 µM [inhibitor, single point]
51 | COc1cc(CN2CCC(Cc3ccccc3)CC2)c([N+](=O)[O-])cc1OC | inconclusive: 79.4 µM [inhibitor, partial curve, poor fit]
52 | O=C(NCc1ccccc1)c1cc2ccc(O)cc2oc1=O | inconclusive: 31.6 µM [inhibitor, full curve, poor fit]
53 | C/C=C\C=C\C(=O)N1CC2(CC(c3cccc(NC(=O)COc4ccc(Cl)cc4)c3)=NO2)C[C@H]1C(N)=O (some centres not stated) | inconclusive: 35.5 µM [inhibitor, full curve, poor fit]
54 | CC(C)C[C@@H](CN)NC(=O)c1nc[nH]c1C(=O)N[C@@H](C)C(=O)CNC[C@H](C)NC(=O)c1nc[nH]c1C(=O)N[C@@H](C)C(=O)O | inconclusive: 56.2 µM [inhibitor, partial curve, poor fit]
55 | CNc1ccccc(C(=O)/C=C/c2ccccc2OC)c1=O | inconclusive: 70.8 µM [inhibitor, partial curve, poor fit]
56 | O=C(NCc1nc2ccccc2[nH]1)C1=C[C@@H](c2ccccc2)C[C@@H](OCCCCO)O1 | inactive
57 | Cn1c(/C(C#N)=C/c2cccc(O)c2)nc2ccccc21 | inconclusive: 17.8 µM [inhibitor, full curve, poor fit]
58 | CCOc1ccc(NC(=O)CN(C)Cc2ccc3c(c2)OCO3)cc1S(=O)(=O)N1CCCC1 | inactive
59 | CCN1CCN(C(=S)c2ccc([N+](=O)[O-])cc2)CC1 | inconclusive: 28.2 µM [inhibitor, full curve, poor fit]
60 | COc1ccc(CNC(=O)C2CCN(C(=O)N3CCOc4ccc(Cl)cc43)CC2)cc1 | inactive
61 | COc1ccc(N=C2C=CC(=O)O2)cc1 | inconclusive: 31.6 µM [inhibitor, full curve, poor fit]
62 | Cc1ccc2[nH]c(=O)c(CN(CCc3ccccc3)C(c3nnnn3Cc3ccco3)C(C)C)cc2c1 (configuration not stated) | inconclusive: 17.8 µM [inhibitor, full curve, poor fit]
